Results taken from PubChem BioAssay AID504832 (National Center for Advancing Translational Sciences (NCATS), 2011).
Among all 310,000 compounds or so, about 18,000 (5.8%) were called active. This list was built around the results that the source calls inconclusive (neither active nor inactive); the mix of calls is not that of the screen. The call rests on the fitted dose curve; in most records, active means well fitted inhibition curve with a large enough effect; inconclusive means small, poorly fitted or top-dose-only effect, or another doubt; inactive means no such curve, though single readings can be large or run the other way. Potencies of inconclusive entries are left out as doubtful fits.

Assay: Primary qHTS for delayed death inhibitors of the malarial parasite plastid, 48 hour incubation
Conditions: P. falciparum luciferase growth in erythrocytes; series mostly up to 28.7 µM; activity change, negative = inhibition: at the top concentration
Method in brief: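 Cell-based growth assay: transgenic P. falciparum expressing firefly luciferase, cultured in red cells within RPMI 1640 containing 0.5% w/v Albumax, 24 mM bicarbonate and gentamycin. A drop in luciferase activity indicates inhibition.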
On the % scale 0 is the no-effect control and ±100 the full control effect; potency means the concentration at half of the fitted maximal effect; tags describe the fitted curve by direction and shape.

| SMILES | activity change, negative = inhibition | Potency |
| --- | --- | --- |
| CC(=O)NCCCNc1ccc([N+](=O)[O-])cc1 | inactive: 75.8% |  |
| N#CC1=C2N=C(N)c3ccccc3N2C2=C(C(=O)CCC2)C1c1cccc(Cl)c1 (stereo not given) |  | inconclusive [inhibitor, single point] |
| COc1ccc(-c2cc(C(=O)N3CCN(c4ccccc4O)CC3)c3ccccc3n2)cc1 |  | inconclusive [inhibitor, partial curve, poor fit] |
| COc1ccc(C2/C=C\CN(C(=O)C3CCCCC3)CC(=O)N2Cc2ccc(F)cc2)cc1 (stereo not given) |  | inconclusive [inhibitor, single point] |
| CCOC(=O)c1ccc(S(=O)(=O)N2CCC(C(=O)NCc3ccccc3OC)CC2)cc1 |  | inconclusive [inhibitor, single point] |
| CCCCOc1ccc(/C=C/C(=O)N(CC)CC(=O)Nc2ccc3c(c2)OCCO3)cc1OC |  | inconclusive [inhibitor, partial curve, poor fit] |
| CC(C#Cc1c([C@@H](C)Oc2ccccc2)nnn1Cc1ccccc1)Oc1ccccc1 (stereo not given in full) |  | active: 11.7 µM |
| CCOc1cc(NC(=O)c2ccccn2)c(OCC)cc1NC(=O)c1ccc(Cl)cc1 | inactive: 16.3% |  |
| CNC(C)[C@@H](O)c1ccc(O)cc1 (stereo not given in full) | inactive: -4.05% |  |
| Cc1ccnc(Nc2nc(-c3c(C)nc4sccn34)cs2)c1 |  | active: 3.29 µM |
| O=C(CSc1nnc(-c2ccc(Br)cc2)n1C1CCCCC1)N1CCCC1 |  | inconclusive [inhibitor, single point] |
| CCOC(=O)C1CCCN(c2nc3ccccc3nc2C(C#N)C(=O)OCCOC)C1 (stereo not given) |  | active: 6.57 µM |
| Cn1cccc1Cc1nnc(SCC(=O)Nc2cccc(F)c2)n1-c1ccc(F)cc1 |  | inconclusive [inhibitor, single point] |
| CC(OC(=O)CSc1ccc([N+](=O)[O-])cc1)C(=O)NC1CC1 (stereo not given) |  | inconclusive [inhibitor, single point] |
| O=C(C1CC1)N1CCc2cc(Br)cc(S(=O)(=O)N3CCN(c4ccccn4)CC3)c21 |  | inconclusive [inhibitor, single point] |
| O=C(Cc1ccc(O)cc1)NC1CCCCCC1 | inactive: 65% |  |
| COc1cccc(NC(=O)n2nc(N)cc2-c2ccc(Cl)cc2)c1 | inactive: 17.9% |  |
| CCCCNC(=O)C1(NC(=O)Nc2ccc(C)cc2)CCCCC1 | inactive: 0% |  |
| COc1ccccc1NC(=O)C/C(C)=N/NC(=O)C12CC3CC(CC(C3)C1)C2 |  | inconclusive [inhibitor, single point] |
| NNC(=O)c1ccc(Cn2cc(Br)c(N)n2)cc1 | inactive: 46.7% |  |
| COc1ccc(-n2ncc3c2CC(C)(C)CC3NC(=O)CSc2ccccn2)cc1 (stereo not given) |  | inconclusive [inhibitor, single point] |
| Cc1cc(C)c(S(=O)(=O)c2ccccc2C)c(Oc2ccccc2)n1 | inactive: -13.8% |  |
| O=c1[nH]ncc(NCc2ccc(Cl)cc2)c1Cl | inactive: 4.52% |  |
| Cn1cc(CCC(=O)NC2CC2)c2ccccc21 |  | inconclusive [inhibitor, partial curve, poor fit] |

| SMILES | activity change, negative = inhibition | Potency |
| --- | --- | --- |
| CCCOC(=O)c1c(-c2ccc(OC)cc2)oc2ccc(-c3ccc(OC)nc3)cc12 |  | inconclusive [inhibitor, single point] |
| Cc1ccc(/C(=N/Nc2ncnc3ccccc23)C(=O)O)cc1 | inactive: 76% |  |
| CCCn1c(SCC(=O)Nc2sc(C)c(C)c2C#N)nnc1C(C)C |  | inconclusive [inhibitor, single point] |
| CCOc1ccc(NC(=O)CCC(=O)O)cc1 | inactive: 13.1% |  |
| O=C(NC1CCCc2c1cnn2-c1ccc(F)cc1F)c1ccccc1N1CCOCC1 (stereo not given) |  | inconclusive [inhibitor, single point] |
| C[C@@H](C[C@@H](O)[C@H](O)C(C)(C)O)[C@@H]1CC[C@]2(C)C3=CC[C@H]4C(C)(C)C(=O)CC[C@]4(C)[C@H]3CC[C@@]12C |  | inconclusive [inhibitor, partial curve] |
| Cc1csc(=Nc2ccccc2)n1C | inactive: 42.3% |  |
| Cc1ccc(C2(c3ccc(C)cc3)CC2C(=O)Nc2ccc([N+](=O)[O-])cc2O)cc1 (stereo not given) |  | active: 0.828 µM |
| Cc1ccc(S(=O)(=O)n2cnc(C)c2)cc1 | inactive: 3.62% |  |
| CC(=O)NCCc1nc2ccccc2n1CCOc1ccccc1 | inactive: -13.6% |  |
| COc1ccc(S(=O)(=O)N2CCN(CC(=O)Nc3cc(C(F)(F)F)ccc3Cl)CC2)cc1 |  | active: 4.65 µM |
| Cc1ccc(C(=O)NC(C)C(c2cccs2)N2CCCC2)s1 (stereo not given) | inactive: 0% |  |
| CCc1nnc(NC(=O)CSCc2cc(=O)n3cc(C)sc3n2)s1 | inactive: -17.5% |  |
| COc1ccc(N(C(=O)c2snc(C(N)=O)c2N)C(C(=O)NCc2ccccc2)c2ccc(O)cc2)cc1OC (stereo not given) |  | inconclusive [inhibitor, single point] |
| CC1CCC(C(C)C)C(OC(=O)Cn2nnc3c(cnn3-c3ccccc3)c2=O)C1 (stereo not given) |  | inconclusive [inhibitor, single point] |
| COc1ccc(CCN2C(=O)CC(NC34CC5CC(CC(C5)C3)C4)C2=O)cc1OC (stereo not given) |  | inconclusive [inhibitor, partial curve] |
| Cc1ccccc1NC(=O)COC(=O)c1ccc(S(=O)(=O)N2CCCCCC2)cc1 |  | inconclusive [inhibitor, single point] |
| Cc1cc2cc(CCNC(=O)c3ccc(Br)o3)c(=O)[nH]c2cc1C |  | inconclusive [inhibitor, partial curve] |
| CCNC(=O)COC(=O)c1ccc(NS(=O)(=O)c2ccc3c(c2)OCCO3)cc1 | inactive: 17.3% |  |
| CSc1ncc(CN2CCc3c([nH]c4ccccc34)C2c2cccc(O)c2)cn1 (stereo not given) |  | active: 4.15 µM |
| CC(C)N(CCNCC(O)COc1ccc(C(C)(C)c2ccccc2)cc1)C(C)C (stereo not given) |  | inconclusive [inhibitor, partial curve] |
| CCN1CCN(c2nc3ccccc3nc2C(C#N)C(=O)OCc2ccccc2)CC1 (stereo not given) |  | active: 11.7 µM |
| CCCn1c(C(O)c2cccc(OC)c2)nc2ccccc21 (stereo not given) |  | inconclusive [inhibitor, single point] |
| CCOc1ccccc1NC(=O)CCN(c1ccc(C)cc1)S(=O)(=O)c1ccccc1 |  | inconclusive [inhibitor, partial curve] |

| SMILES | activity change, negative = inhibition | Potency |
| --- | --- | --- |
| CSC1=N/C(=C/c2cccnc2)C(=O)N1Cc1ccccc1 | inactive: 1.44% |  |
| CC[N+](C)(CC)CCC/C(=N/O)C(O)(c1ccccc1)c1ccccc1 |  | inconclusive [inhibitor, single point] |
| CCC(C(=O)NC(C)(C)C)N(Cc1cccs1)C(=O)CNS(=O)(=O)c1ccccc1 (stereo not given) |  | active: 2.33 µM |
| COc1ccccc1NC(=O)Cn1c(=O)n(CCc2c[nH]c3ccccc23)c(=O)c2cccnc21 |  | inconclusive [inhibitor, partial curve] |
| CCSc1nnc(NC(=O)CSc2nnc(-c3c[nH]c4ccccc34)n2CC)s1 |  | inconclusive [inhibitor, partial curve, poor fit] |
| CCC(C)[C@H](N)c1cn([C@@H](Cc2cc3ccccc3[nH]2)C(=O)N2CCNCC2)nn1 (stereo not given in full) |  | inconclusive [inhibitor, single point] |
| CC(OC(=O)c1cc(=O)[nH]c2ccccc12)C(=O)N1C(C)CCCC1C (stereo not given) |  | inconclusive [inhibitor, single point] |
| O=S(=O)(Nc1cccc2ncccc12)c1cccc(C(F)(F)F)c1 |  | inconclusive [inhibitor, partial curve, poor fit] |
| CCC1=NN(C(=O)COc2ccccc2)C(O)(c2ccc(Br)cc2)C1 (stereo not given) |  | inconclusive [inhibitor, single point] |
| COc1ccccc1NS(=O)(=O)c1ccc(N/N=C(\C)C(C)C)c([N+](=O)[O-])c1 |  | active: 8.28 µM |
| COc1ccc(Cn2c(SCc3ccccc3C)nc3cc(OC)c(OC)cc3c2=N)cc1 |  | active: 5.86 µM |
| COC(=O)c1c(NC(=O)Cn2cnc([N+](=O)[O-])n2)sc2c1CCC(C)C2 (stereo not given) |  | inconclusive [inhibitor, single point] |
| O=S1(=O)N=C(N/N=C/c2ccccn2)c2ccccc21 |  | inconclusive [inhibitor, single point] |
| O=c1c2ccccc2nc(/C=C/c2ccccc2)n1CCCO |  | inconclusive [inhibitor, partial curve, poor fit] |
| CCOc1ccc(N(C(=O)c2snc(C(N)=O)c2N)C(C(=O)NCC2CCCO2)c2ccc(C)o2)cc1 (stereo not given) |  | inconclusive [inhibitor, partial curve] |
| CCc1ccc(OCC(=O)NC(NC(=S)Nc2ccccc2)C(Cl)(Cl)Cl)cc1 (stereo not given) |  | active: 13.1 µM |
| CCCNC(=O)C1CN(S(=O)(=O)c2ccc(Cl)s2)c2ccccc2O1 (stereo not given) |  | inconclusive [inhibitor, single point] |
| C[C@]1(CO)CCC[C@@]2(C)C1CC[C@@H](CO)[C@@H]2CCc1ccoc1 (stereo not given in full) | inactive: -8.6% |  |
| CCCCC(=O)NC(NC(=S)N1CCCCCC1)C(Cl)(Cl)Cl (stereo not given) |  | inconclusive [inhibitor, partial curve, poor fit] |
| COc1ccc(C(=O)OCC(=O)N2CCCCCC2)cc1S(=O)(=O)N1CCOCC1 | inactive: -23.1% |  |
| CC(=O)SC1CC2=CC(=O)CCC2(C)C2CCC3(C)C(CCC34CCC(=O)O4)C12 (stereo not given) | inactive: -27.2% |  |
| Cc1cccc(CN2CCC(Oc3ccc(C(=O)N4CCCCC4)cc3)CC2)c1 |  | inconclusive [inhibitor, single point] |
